Source: PubChem BioAssay AID504466 (National Center for Advancing Translational Sciences (NCATS), 2011)
Among all 330,000 compounds or so, about 4,200 (1.3%) were called active. Inconclusive means that the source gave no clear call. Such entries were picked first, then a sample of the others. Calls follow the shape of the dose curve; as a rule, active = well fitted activation curve with a large enough effect; inconclusive = small, poorly fitted or top-dose-only effect; inactive = no such curve, though single readings can be large or run the other way. Potencies beside an inconclusive call are fits to weak or partial responses and may not hold up.

Experiment: qHTS screen for small molecules that induce genotoxicity in human embryonic kidney (HEK293T) cells expressing luciferase-tagged ELG1; also: nearly all actives have a fitted effect of over 60% in size
Details: HEK293T ELG1-luciferase reporter, luminescence, 16 h; series mostly up to 46 µM
Excerpt: NIH Molecular Libraries Probe Production Network [MLPCN] NIH Chemical Genomics Center [NCGC] MLPCN Grant: 1 R03 MH092164-01 Assay Provider: Kyungjae Myung, NHGRI, NIH Keywords: MLPCN, qHTS, NCGC, genotoxicity, cancer Assay Overview: Cancer cells divide rapidly compared to normal cells in the body. During cell division, cancer cells need to duplicate their genome by DNA replication. The failure of genome duplication leads to cancer cells' death. Therefore, inhibitors of DNA replication could specifically kill cancer cells. Based on this concept, many chemotherapeutic agents were developed and have been used to treat cancer patients. However, there are a limited number of agents available in the clinical setting, and some of those that do exist have low efficacy and severe side effects. Therefore, if we can find the compounds that effectively block DNA replication either by directly damaging DNA or by inhibiting other cellular mechanisms, the options for cancer treatment will be broadened. With this in mind, we developed a quantitative high-throughput ELG1-luciferase reporter gene assay. Since the level of human ELG1 protein is enhanced in response to genetic stresses, increases in luciferase activity can be used to identify compounds that cause genetic stress.
Assay Protocol Summary: For genotoxicity screening, 2,000 cells in 5 uL/well were dispensed into white, solid-bottom 1536-well plates using a solenoid-based dispenser. Following transfer of 23 nL compound or DMSO vehicle by a pin tool, the plates were incubated 16 hr at 37 °C and 5% CO2. 5 ul ONE-Glo (Promega) was then added to each plate and following a 30 min incubation at room temperature, luciferase activity was quantified on a ViewLux CCD-based plate reader.
Potency is read from the fitted curve at half-maximal effect; tags tell the direction and shape of the fitted curve.

**Q.** Which Potency does the source give for `COc1cccc2cc(C(=O)NCc3ccccn3)c(=O)oc12` here?
**A.** inconclusive: 18.4 µM [activator, single point]

**Q.** With `COC(=O)N/N=C\c1ccc(-c2cc(Cl)c(Cl)cc2Cl)o1` as the compound, how does the Potency read?
**A.** inconclusive: 29.1 µM [activator, partial curve, poor fit]

**Q.** Which Potency does the source give for `CCCSc1nsc(NC(=O)Nc2ccc(F)cc2F)n1` here?
**A.** inactive

**Q.** Which Potency does the source give for `Oc1cccc2ccc(/C=C/c3ccccc3Cl)nc12` here?
**A.** active: 18.3 µM

**Q.** With `Cc1noc(/C=C/N(C)C)c1S(=O)(=O)N1CCCC(C(=O)Nc2ccc(F)cc2F)C1` (stereo not given) as the compound, how does the Potency read?
**A.** inactive

**Q.** Which Potency does the source give for `O=C(CNS(=O)(=O)/C=C/c1ccccc1)OC1CCOC1=O` (stereo not given) here?
**A.** inactive

**Q.** For `O=C(O)c1cccc(NC(=O)c2cccc(S(=O)(=O)N3CCCCC3)c2)c1`, which Potency is on record?
**A.** inconclusive: 13 µM [activator, partial curve, poor fit]

**Q.** Which Potency does the source give for `CCCCn1c(NC(=S)Nc2ccccc2)nc2ccccc21` here?
**A.** inconclusive: 29.1 µM [activator, single point]

**Q.** With `COc1ccccc1/C=C/C(=O)c1ccc(Cl)cc1` as the compound, how does the Potency read?
**A.** inconclusive: 20.6 µM [activator, partial curve, poor fit]

**Q.** Which Potency does the source give for `COC(=O)c1ccc(NC(=O)CSc2ccccn2)cc1` here?
**A.** inconclusive: 29.1 µM [activator, partial curve, poor fit]

**Q.** With `O=C(Nc1nccs1)C1=COCCO1` as the compound, how does the Potency read?
**A.** inactive

**Q.** For `Cc1ccc(C(=O)Nc2nc(C)c(C(=O)Nc3ccc4c(c3)CCC4)s2)cc1`, which Potency is on record?
**A.** active: 18.4 µM

**Q.** Which Potency does the source give for `Nc1ccc2nc(N3CCOCC3)sc2c1` here?
**A.** inconclusive: 9.2 µM [activator, partial curve, poor fit]

**Q.** For `Nc1c2c(nc3sc4c(c13)CCCC4)-c1ccccc1CC2`, which Potency is on record?
**A.** active: 0.73 µM

**Q.** For `Cc1ccccc1N=CC1=C(O)c2ccccc2C1=O`, which Potency is on record?
**A.** inconclusive: 0.326 µM [activator, full curve, poor fit]

**Q.** For `COCC(C)N=C1NN=C(c2cccs2)C(CC(=O)O)S1` (stereo not given), which Potency is on record?
**A.** inactive

**Q.** For `O=C(Nc1ccc(N2CCCC2)cc1)c1ccc(Br)o1`, which Potency is on record?
**A.** inconclusive: 16.4 µM [activator, partial curve, poor fit]

**Q.** For `COc1ccc(C(=O)Nc2ccc(C)c(S(=O)(=O)N3CCCCCC3)c2)cc1`, which Potency is on record?
**A.** inactive

**Q.** For `O=C(Nc1ccc(N2CCCC2)c(Cl)c1)c1ccc([N+](=O)[O-])o1`, which Potency is on record?
**A.** inactive

**Q.** Which Potency does the source give for `Cc1ccc(C(=O)CSc2cnc3ccccc3n2)cc1C` here?
**A.** active: 9.2 µM

**Q.** With `Cc1cc(N2CCN(C)CC2)nc2ccc(NC(=O)c3ccc4c(c3)OCO4)cc12` as the compound, how does the Potency read?
**A.** inactive

**Q.** Which Potency does the source give for `COc1ccc(CCN2C(=O)NC(NC(=O)CCc3ccccc3)(C(F)(F)F)C2=O)cc1OC` (stereo not given) here?
**A.** inactive

**Q.** With `CCC(Cc1ccccc1)NC(=O)/C=C/c1ccco1` (stereo not given) as the compound, how does the Potency read?
**A.** inactive

**Q.** Which Potency does the source give for `Oc1c(C=Nc2ccc(Cl)cn2)sc2ccccc12` here?
**A.** active: 5.8 µM

**Q.** Which Potency does the source give for `COc1cc(/C=C/c2ccc3cccc(O)c3n2)cc(Br)c1OC` here?
**A.** active: 23.1 µM

**Q.** Which Potency does the source give for `Cc1cccc(C(=O)Nc2cccc(C(=O)N3CCOCC3)c2)c1` here?
**A.** inactive

**Q.** Which Potency does the source give for `CCOc1ccc(-c2nc(CSc3nnc(N)s3)cs2)cc1` here?
**A.** active: 5.01 µM

**Q.** With `CC(C)CCNC(=O)CCn1nc(-c2ccccc2)ccc1=O` as the compound, how does the Potency read?
**A.** inactive

**Q.** With `Cc1cc(NC(=O)c2cc3ccccc3o2)ccc1NC(=O)c1ccccc1` as the compound, how does the Potency read?
**A.** inactive

**Q.** With `COc1ccccc1C(=O)COC(=O)c1ccc(N(C)C)cc1` as the compound, how does the Potency read?
**A.** inconclusive: 2.31 µM [activator, full curve, poor fit]

**Q.** With `CC1CCCCN1c1nc(-c2ccncc2)nc2ccccc12` (stereo not given) as the compound, how does the Potency read?
**A.** inactive

**Q.** For `CC(C)(C)c1ccc(C(=O)O/N=C(\N)c2ccccc2)cc1`, which Potency is on record?
**A.** inconclusive: 9.2 µM [activator, partial curve]

**Q.** For `N#Cc1nc(-c2cccc3ccccc23)oc1NCC1CCCO1` (stereo not given), which Potency is on record?
**A.** inconclusive: 29.1 µM [activator, partial curve, poor fit]

**Q.** With `O=C(Nc1ccc(F)cc1F)c1csc(-c2ccccc2)n1` as the compound, how does the Potency read?
**A.** inconclusive: 18.3 µM [activator, partial curve, poor fit]

**Q.** With `CSc1ccc(C(=O)c2[nH]c(=O)[nH]c2C)cc1` as the compound, how does the Potency read?
**A.** inconclusive: 4.61 µM [activator, partial curve]

**Q.** With `COc1ccccc1NC(=O)c1coc(=O)c(Br)c1` as the compound, how does the Potency read?
**A.** inconclusive: 10.3 µM [activator, partial curve]

**Q.** Which Potency does the source give for `CCCCNC(=O)Nc1ccc(C2SCCS2)cc1` here?
**A.** inconclusive: 23.1 µM [activator, partial curve, poor fit]

**Q.** Which Potency does the source give for `CN(C)C(=O)c1cc(C(=O)c2ccc(C(F)(F)F)cc2)c[nH]1` here?
**A.** inconclusive: 13 µM [activator, partial curve, poor fit]

**Q.** For `CCCc1ccc(-c2cc(NC(=O)CSc3n[nH]c(N)n3)n(-c3ccccc3)n2)cc1`, which Potency is on record?
**A.** inconclusive: 20.6 µM [activator, single point]

**Q.** For `Cc1cc(C(=O)COC(=O)c2ccc(O)cc2O)c(C)n1-c1ccccc1`, which Potency is on record?
**A.** inconclusive: 2.06 µM [activator, full curve, poor fit]

**Q.** With `COc1cc(-c2n[nH]c(=S)n2-c2cc(C(F)(F)F)ccc2Cl)cc(OC)c1OC` as the compound, how does the Potency read?
**A.** inconclusive: 20.6 µM [activator, partial curve, poor fit]

**Q.** With `CCOc1ccc(/C=C/C(=O)c2ccccc2)cc1` as the compound, how does the Potency read?
**A.** inconclusive: 13 µM [activator, partial curve]

**Q.** For `CCN1CCN(C(=O)C2CCN(c3nnc(-n4c(C)ccc4C)s3)CC2)CC1`, which Potency is on record?
**A.** inconclusive: 23.1 µM [activator, partial curve, poor fit]

**Q.** With `N#CCCN(Cc1ccccc1)C(=O)Nc1ccc(F)cc1` as the compound, how does the Potency read?
**A.** inactive

**Q.** Which Potency does the source give for `COCCn1c(C)cc(C(=O)CSc2n[nH]c(N)n2)c1C` here?
**A.** inconclusive: 29.1 µM [activator, single point]

**Q.** Which Potency does the source give for `Cn1c(-c2ccc(C=O)s2)nc2ccccc21` here?
**A.** active: 14.6 µM

**Q.** With `COc1ccc(C(=O)n2nc(C)cc2Nc2ccccc2)cc1` as the compound, how does the Potency read?
**A.** active: 23.1 µM

**Q.** Which Potency does the source give for `O=C1C2C3C=CC(C4CC34)C2C(=O)N1c1ccc2c(c1)OCO2` (stereo not given) here?
**A.** inactive

**Q.** With `COc1ccc(CC(=O)Nc2cccc(-c3ccc4nnc(C)n4n3)c2)cc1` as the compound, how does the Potency read?
**A.** inconclusive: 20.6 µM [activator, partial curve]

**Q.** Which Potency does the source give for `CN(C)c1ccc(CC(=O)c2nc3ccccc3s2)cc1` here?
**A.** inconclusive: 10.3 µM [activator, partial curve]
